This is an account of results in article PMC6959191 (Haematologica, 2019).

The assay deals with NF-κB-inducing kinase (human (endogenous in OPM-2 and …, UniProt Q99558 1-947)). The assay can be described thus: co-IP.

Some results are limits rather than exact numbers.

UniProt Q99558, sequence (Q99558 whole entry): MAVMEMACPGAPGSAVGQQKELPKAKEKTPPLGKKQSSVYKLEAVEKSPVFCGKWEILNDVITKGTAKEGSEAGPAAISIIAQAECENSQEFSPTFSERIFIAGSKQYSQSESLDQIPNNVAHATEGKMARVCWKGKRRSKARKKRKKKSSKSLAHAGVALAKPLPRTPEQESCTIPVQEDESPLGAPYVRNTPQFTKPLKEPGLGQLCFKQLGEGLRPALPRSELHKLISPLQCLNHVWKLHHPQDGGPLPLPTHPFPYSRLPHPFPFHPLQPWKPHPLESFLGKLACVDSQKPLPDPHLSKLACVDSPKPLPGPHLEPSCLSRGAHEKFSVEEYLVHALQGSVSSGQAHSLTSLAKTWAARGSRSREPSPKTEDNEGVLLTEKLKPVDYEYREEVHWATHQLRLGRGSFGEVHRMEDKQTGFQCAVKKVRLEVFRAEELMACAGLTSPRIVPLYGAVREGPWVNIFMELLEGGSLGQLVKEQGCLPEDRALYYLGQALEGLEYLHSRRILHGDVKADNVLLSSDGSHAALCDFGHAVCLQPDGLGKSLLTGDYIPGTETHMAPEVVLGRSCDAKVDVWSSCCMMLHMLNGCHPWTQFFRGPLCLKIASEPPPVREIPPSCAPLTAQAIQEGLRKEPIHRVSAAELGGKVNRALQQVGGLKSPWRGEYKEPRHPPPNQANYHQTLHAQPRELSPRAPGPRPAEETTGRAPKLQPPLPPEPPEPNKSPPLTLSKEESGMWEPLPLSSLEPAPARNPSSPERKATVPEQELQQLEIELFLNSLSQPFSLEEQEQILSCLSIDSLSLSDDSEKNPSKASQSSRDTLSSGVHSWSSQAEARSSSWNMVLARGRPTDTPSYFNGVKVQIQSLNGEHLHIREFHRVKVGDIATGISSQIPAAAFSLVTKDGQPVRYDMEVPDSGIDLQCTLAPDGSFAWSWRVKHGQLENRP

B1: c-Abl tyrosine kinase (natural protein)
chain: MLEICLKLVGCKSKKGLSSSSSCYLEEALQRPVASDFEPQGLSEAARWNSKENLLAGPSE[about 60 residues left out here]LEKHSWYHGPVSRNAAEYLLSSGINGSFLVRESESSPGQRSISLRYEGRVYHYRINTASDGKLYVSSESRFNTLAELVHHHSTVADGLITTLHYPAPKRNKPTVYGVSPNYDKWEMERTDITMKHKLGGGQYGEVYEGVWKKYSLTVAVKTLKEDTMEVEEFLKEAAVMKEIKHPNLVQLLGVCTREPPFYIITEFMTYGNLLDYLRECNRQEVNAVVLLYMATQISSAMEYLEKKNFIHRDLAARNCLVGENHLVKVADFGLSRLMTGDTYTAHAGAKFPIKWTAPESLAYNKFSIKSDVWAFGVLLWEIATYGMSPYPGIDLSQVYELLEKDYRMERPEGCPEKVYELMRACWQWNPSDRPSFAEIHQAFETMFQESSISDEVEKELGKQGVRGAVSTLLQAPELPTKTRTSRRAAEHRDTTDVPEMPHSKGQGESDPLDHEPAVSPLLPRKERGPPEGGLNEDERLLPKDKKTNLFSALIKKKKKTAPTPPKRSSSFREMDGQPERRGAGEEEGRDISNGALAFTPLDTADPAKSPKPSNGAGVPNGALRESGGSGFRSPHLWKKSSTLTSSRLATGEEEGGGSSSKRFLRSCSASCVPHGAKDTEWRSVTLPRDLQSTGRQFDSSTFGGHKSEKPALPRKRAGENRSDQVTRGTVTPPPRLVKKNEEAADEVFKDIMESSPGSSPPNLTPKPLRRQVTVAPASGLPHKEEAGKGSALGTPAAAEPVTPTSKAGSGAPGGTSKGPAEESRVRRHKHSSESPGRDKGKLSRLKPAPPPPPAASAGKAGGKPSQSPSQEAAGEAVLGAKTKATSLVDAVNSDAAKPSQPGEGLKKPVLPATPKPQSAKPSGTPISPAPVPSTLPSASSALAGDQPSSTAFIPLISTRVSLRKTRQPPERIASGAITKGVVLDSTEALCLAISRNSEQMASHSAVLEAGKNLYTFCVSYVDSIQQMRNKFAFREAINKLENNLRELQICPATAGSGPAATQDFSKLLSSVKEISDIVQR
B1: the “fold increase of the association against untreated control cells” value is ≥ 3 fold.
